# The whole screen tested about 45,000 compounds, of which about 200 (0.44%) were called active. About 7% were inconclusive and are not listed. Calls come from the whole dose curve; as a rule, active = well fitted activation curve with a large enough effect; inconclusive = small, poorly fitted or top-dose-only effect; inactive = no such curve, though single readings can be large or run the other way. This is one part of the list.
# Assay: qHTS of TDP-43 Inhibitors: NCGC Sytravon Library Screen; note: 0% is about no effect; nearly all actives have a fitted effect of over 55% in size
# Conditions: yeast TDP-43 toxicity rescue, BacTiter-Glo growth, 24 h; series mostly up to 46.1 µM; growth rescue (activation): at the top concentration
# Method in brief: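 TDP-43-expressing yeast, pregrown in raffinose, seeded at OD600 0.02 in galactose medium with compound for 24 hr at 30 deg C. Growth read by BacTiter-Glo luminescence, so rescue of toxicity appears as activation.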
row,Compound,growth rescue (activation)
1,COc1ccc(NS(=O)(=O)c2cccc(C(=O)N/N=C/c3ccccc3OC)c2)cc1,inactive: 7.18%
2,O=C(COC(=O)CC1CC2CCC1C2)Nc1ccccc1[N+](=O)[O-] (stereo not drawn),inactive: -27.4%
3,CCCNC(=O)C1CCN(S(=O)(=O)c2cccc3nonc23)CC1,inactive: -0.796%
4,COc1ccc(NC(=O)Cn2nnc(-c3nc(-c4ccncc4)no3)c2N)cc1OC,inactive: 12.2%
5,COc1cc(NC(=S)NCCN2CCOCC2)cc(OC)c1,inactive: 12.4%
6,COc1ccc(CNC(=O)c2nn(-c3ccccc3)cc2OC)cc1,inactive: -1.76%
7,CCn1cc(CN2CCC(n3nccc3NC(=O)c3cccc(F)c3)CC2)c(C)n1,inactive: -8.04%
8,CC(=O)N1N=C(c2ccc(Cl)cc2)OC1(C)C,inactive: 1.4%
9,Cc1cc(C(=O)N2CCC2(C)C(=O)NCC(C)(C)C)nn1C (stereo not drawn),inactive: 12%
10,CC1CCN(C(=O)c2ccc(NC(=O)c3cccs3)cc2)CC1,inactive: 14.5%
11,CC(=O)c1cccc(NC(=O)c2cc(-c3cccs3)on2)c1,inactive: -3.24%
12,NC(=NC(=O)c1ccccc1)N1N=CCC1c1ccccc1 (stereo not drawn),inactive: 13.1%
13,Cc1nc2ccccc2c(=O)n1/N=C/c1cccs1,inactive: 10.2%
14,Clc1ccc(Sc2cc(N3CCOCC3)nc(-c3ccccc3)n2)cc1,inactive: -2.08%
15,O=C(Cn1cc(C(F)(F)F)ccc1=O)N/N=C/c1ccc(Cl)cc1Cl,inactive: 1.29%
16,CC1(C)OC(=O)C(=CNCCc2ccc(O)cc2)C(=O)O1,inactive: -1.25%
17,O=C(Nc1nccs1)C1CC(=O)N(c2ccc(F)cc2)C1 (stereo not drawn),inactive: -2.28%
18,O=C(NCC1CCCN(C(=O)c2cscn2)C1)c1ccc(-c2ccccc2)cc1 (stereo not drawn),inactive: 5.36%
19,COC(=O)COc1ccc(S(=O)(=O)N2CCCCCC2)cc1C,inactive: 25%
20,COc1cc(C(=O)COC(=O)c2cccs2)cc(OC)c1OC,inactive: 4.76%
21,c1csc(-c2noc(CN3CCN4CCCC4C3)n2)c1 (stereo not drawn),inactive: 0.7%
22,CC(C)N(C)c1ncnc2c1ncn2[C@H]1CN(Cc2cccs2)C[C@@H](CO)O1,inactive: 2.23%
23,COc1cccc(CNC(=O)CCc2c(C)nc3c4c(C)cc(C)nc4nn3c2C)c1,inactive: 0.0353%
24,Cc1ccc(C)c(CN2C(=O)c3ccccc3S(=O)(=O)c3ccc(C(=O)NCCc4ccc(Cl)cc4)cc32)c1,inactive: 3.81%
25,O=C(/C=C/c1ccco1)N1CCN(c2ncccn2)CC1,inactive: 21.3%
26,CC(C)N(C(=O)Cn1c(SCC(=O)NC2CC2)nc2ccccc21)C(C)C,inactive: 4.4%
27,Cc1ccccc1Cn1nc(C)c(NC(=O)c2cc3nc(-c4ccco4)cc(C(F)(F)F)n3n2)c1C,inactive: -8.03%

row,Compound,growth rescue (activation)
1,O=C(CSc1nnc(NC(=O)c2c(F)cccc2F)s1)NC1CCCC1,inactive: -8.43%
2,Cc1ccc(NC(=O)CN(C)C(=O)CSc2nccn2C)cc1,inactive: -1.63%
3,CCc1ccc2c(c1)NC(=O)C2(C)Cc1ccc(Cl)cc1 (stereo not drawn),inactive: 15.5%
4,COc1ncccc1C(=O)N1CCC(n2nccc2NC(=O)CC(C)C)CC1,inactive: 3.68%
5,COc1ccccc1NC(=O)CN1CCC(c2nc3ccc(C)cc3[nH]2)CC1,inactive: -0.338%
6,Cc1cc(C)c(S(C)(=O)=O)c(=O)[nH]1,inactive: -14.6%
7,COc1ccc(NS(=O)(=O)c2cc(N=Nc3c(O)[nH]c(=O)[nH]c3=O)ccc2Cl)cc1,inactive: 0.529%
8,CCOC(=O)C1CCCN(C(=O)c2ccc([N+](=O)[O-])c(C)c2)C1 (stereo not drawn),inactive: -11.8%
9,Cc1cc(NCc2ccc(Cl)cc2)n2cnnc2n1,inactive: 2.01%
10,COc1ccc(-c2nc3c(c(=O)n(C)c(=O)n3C)n2CC2CC(c3ccccc3)=NO2)cc1OC (stereo not drawn),inactive: -4.32%
11,C/C(=N\NC(=O)c1ccc2c(c1)OCO2)c1ccc2c(c1)OCO2,inactive: 2.73%
12,c1ccc(-c2cn3c4c(sc3n2)CCCC4)cc1,inactive: -18.8%
13,CC(=O)c1ccc(NC(=O)COC(=O)CCN2C(=O)c3cccc([N+](=O)[O-])c3C2=O)cc1,inactive: -0.781%
14,CCn1c(CC(=O)Nc2ccc(OC)cc2)nnc1SCC(=O)N1CCOCC1,inactive: 4.94%
15,CCCC(=O)N1CCC1(C)C(=O)Nc1ccccc1C(C)(C)C (stereo not drawn),inactive: -4.59%
16,COc1ccc(OCC(=O)NCCNC(=O)c2cccnc2)cc1,inactive: 3.73%
17,CCOC(=O)N1CCN(S(=O)(=O)c2ccc3c(c2)NC(=O)CO3)CC1,inactive: 2.18%
18,COC(=O)c1ccccc1NC(=S)N(Cc1ccc2c(c1)OCO2)Cc1cc2cccc(C)c2[nH]c1=O,inactive: 3.9%
19,C=CCn1c(C(C)C)nc2ccccc21,inactive: 1.43%
20,Cc1ccccc1C(=O)NC1CCN(CC(=O)NCc2ccc(F)cc2)CC1,inactive: 8.13%
21,CCCC(C)C(=O)Nc1cc([N+](=O)[O-])ccc1F (stereo not drawn),inactive: 22.6%
22,O=C(Cn1nnc(-c2ccccc2NC(=O)c2ccccc2F)n1)NC1CCCC1,inactive: -5.13%
23,CCOC(=O)c1cc(NC(=O)Nc2nc3ccccc3s2)c(C)nc1C,inactive: 12.1%
24,O=C(CCc1nnc(COc2ccccc2)o1)NCc1ccc(Cl)s1,inactive: 13%
25,CC(=O)ON1C(C)(C)Cc2noc(N)c2C1(C)C,inactive: 14.7%
26,Cc1ccc(NC(=O)CN(C)C(=O)c2n[nH]c(=O)c3ccccc23)cc1,inactive: 1.23%

# From PubChem BioAssay AID1347073 (National Center for Advancing Translational Sciences (NCATS), 2019)
